The results in this text go back to paper PMC6212790.

The list shows a part of the results. At the low end of the ranking, values are background and their order means little.

The assay deals with T1, GST-Rok (full length) (UniProt O34857).
T1 sequence: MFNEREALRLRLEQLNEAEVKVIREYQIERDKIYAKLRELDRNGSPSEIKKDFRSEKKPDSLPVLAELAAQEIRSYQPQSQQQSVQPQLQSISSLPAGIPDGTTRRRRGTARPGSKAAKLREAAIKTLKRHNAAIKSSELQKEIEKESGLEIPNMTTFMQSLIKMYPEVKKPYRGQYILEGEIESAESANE
In words: protein binding microarray.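 Further: rank score from −0.5 (least bound) to 0.5 (best bound).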 The settings on record: Rok is a gene silencer of Bacillus subtilis; high values mean tight binding; most listed sequences are background and not binding sites; double strand, one strand shown.
As to GGTACGTA, the binding signal was 0.224 E-score. CTGCGCTA showed a binding signal of -0.143 E-score. The value for GGGCTCCA was -0.23 E-score; that for CTGGTTTA was -0.0493 E-score. The value for ATGTTCCA was 0.00947 E-score; that for CGTCGATA was 0.124 E-score. Then GATAGATA, with 0.368 E-score; and AAATCGGA, with -0.0407 E-score. AAAAACGA returned a binding signal of -0.00031 E-score. For the sequence GAGAAATA, the binding signal was determined as 0.305 E-score. The value for CGCGGTGC was -0.315 E-score; that for ATATCACA was 0.176 E-score. Then ACAGGTCT, with -0.119 E-score. The value for AGTTTGAG was -0.0375 E-score; that for ACTCACAA was -0.0278 E-score; that for CCCATCAC was -0.169 E-score.

Sequence AATGCTTC came in with a binding signal of 0.0347 E-score. The value for CAAAAGTA was 0.258 E-score; that for CCGAGTTA was 0.206 E-score; that for GAGTTGGC was -0.158 E-score. The value for ACGCTAAC was 0.115 E-score. In the case of AATGACCT, the binding signal is -0.129 E-score. Sequence ACGTCGAT showed a binding signal of 0.142 E-score. Then AGTGTAGA, with 0.138 E-score; and AGGTACTC, with -0.0642 E-score; and GGTGATCA, with -0.319 E-score. Then AAGGATCA, with -0.129 E-score; and CCTTCCTC, with -0.365 E-score. Take CCGGCCGC: the binding signal is -0.308 E-score.

ATATCAGG had a binding signal of 0.078 E-score. The sequence GACAAGGC yielded a binding signal of -0.155 E-score. As to GCGTATCA, the binding signal amounted to 0.0845 E-score. Sequence GCGCATCC returned a binding signal of -0.273 E-score. On to GAATTGGA, for which the binding signal was 0.104 E-score. Regarding AAGTTTCC, the binding signal is -0.0805 E-score.

On to ATCCCTCG, for which the binding signal was -0.216 E-score.

Regarding CATTAGCG, the binding signal amounted to 0.118 E-score. Then AAAATTAC, with 0.248 E-score; and CACCTAGC, with -0.131 E-score; and AAAGGGAG, with -0.363 E-score. The value for CCATTTCC was -0.131 E-score. The value for CGACGTTA was 0.102 E-score. In turn, ATTAATTA displayed a binding signal of 0.279 E-score. The sequence GTCGGGCA registered a binding signal of -0.219 E-score.

Sequence CATGCTGG displayed a binding signal of -0.145 E-score. Consider AAATGGCG, for which the binding signal is -0.0887 E-score. The value for GGCACACC was -0.279 E-score; that for ACCCGTTC was -0.078 E-score; that for CAGGAGCA was -0.255 E-score.

In turn, CGTTGCAA had a binding signal of 0.134 E-score. For CTCGTTTA, the binding signal turned out to be 0.0412 E-score.

ATATATCA showed a binding signal of 0.398 E-score. Turning to ACACGTGT, the binding signal was 0.102 E-score. On to GGCCAGAC, for which the binding signal is -0.3 E-score. The value for ATATCATA was 0.247 E-score; that for ACGCGGGC was -0.128 E-score. Then AACCCCAT, with -0.3 E-score; and CGTGGTAA, with -0.0887 E-score.

For AGCCTTAC, the binding signal was -0.0245 E-score. On to GCTTGTTA, for which the binding signal is -0.00887 E-score.

ACTTCTAT yielded a binding signal of 0.274 E-score. The value for GAGCTCTA was -0.0356 E-score; that for CAATAGAA was 0.231 E-score; that for AGCGGGGC was -0.344 E-score. Then GATCAAAA, with 0.077 E-score; and AACAAGAC, with -0.0903 E-score.

Consider AGTAGCAG, for which the binding signal was 0.0322 E-score. The value for CTCATACC was 0.132 E-score.

CACGCCCA came in with a binding signal of -0.24 E-score.

Sequence AAAATCTC showed a binding signal of 0.141 E-score.

The sequence CGATGATC registered a binding signal of -0.0545 E-score. Then CCATTCTC, with -0.103 E-score. Then GCTGGTCA, with -0.343 E-score. The value for GCTTCGAC was -0.0139 E-score.

In turn, CTCGAAGA registered a binding signal of -0.0166 E-score. Then CCCTCAAA, with -0.31 E-score. Then ACGCTCAT, with -0.273 E-score; and CGCCCCAG, with -0.363 E-score. The value for ACGCCCCG was -0.396 E-score; that for CCTGTACC was 0.0338 E-score. In the case of CTGCCTTA, the binding signal is -0.0496 E-score. Then CCGAGGTC, with -0.243 E-score; and GCCATCCA, with -0.168 E-score. Then CCCGCACA, with -0.286 E-score; and GATCGAAA, with -0.0281 E-score. Then CTCTCCAA, with -0.126 E-score; and AGTATCGC, with 0.0166 E-score.

AACATGAC displayed a binding signal of 0.206 E-score. As to AACCGCGA, the binding signal is -0.0117 E-score. The value for AGCTCCTG was -0.261 E-score; that for AATGAGTC was -0.114 E-score.

AAGCAAGA displayed a binding signal of -0.0912 E-score. Then ATGAACGC, with -0.108 E-score. On to ACACGGAG, for which the binding signal was -0.123 E-score.

In the case of GTGCGGCA, the binding signal was -0.271 E-score. The value for CACAGATG was -0.0303 E-score. Turning to CATTCGTA, the binding signal is 0.0195 E-score. The value for GGGGACGA was -0.214 E-score.

The sequence ATTCTTAC registered a binding signal of 0.159 E-score. The sequence CTTACGAA gave a binding signal of 0.0513 E-score. In turn, AATAATCA showed a binding signal of 0.187 E-score. TCTCACCA yielded a binding signal of -0.0107 E-score. Then CCAGGGGA, with -0.274 E-score; and ATATCAAA, with 0.195 E-score; and CGCAACCC, with -0.133 E-score. The value for GGTAGGAC was 0.0568 E-score. The value for TAGCAAAA was 0.163 E-score; that for AACAGTTG was 0.0822 E-score. The sequence AAACTCCA showed a binding signal of -0.0432 E-score. Then ATGTCAGA, with -0.087 E-score. Then ACAAAACA, with 0.116 E-score; and GAACAGAC, with 0.0035 E-score; and AACGTCGG, with -0.223 E-score. Then CGACCGCG, with -0.0803 E-score; and CAACTGGA, with -0.143 E-score. GCGAGCGA: the binding signal is -0.149 E-score. The value for TCGTAAGA was 0.0433 E-score; that for ATAAGCAG was 0.145 E-score; that for CAAGACCG was -0.311 E-score.

Sequence AACTGAGG had a binding signal of -0.0271 E-score.

For the sequence CTAGTATA, the binding signal amounted to 0.409 E-score. The value for ATGGCCAC was -0.249 E-score; that for TTAGGAAA was -0.0886 E-score; that for AATGTCAG was -0.155 E-score. The value for AGAGATTC was -0.104 E-score.

The sequence CCAAGGCC registered a binding signal of -0.305 E-score. The sequence CCTCCGCG gave a binding signal of -0.0896 E-score. The value for AGTACTAA was 0.357 E-score; that for ACGGTGCC was -0.36 E-score. Then CATTCCTC, with -0.0046 E-score.

Sequence AACTCATT showed a binding signal of 0.071 E-score.

In turn, AACAATAG gave a binding signal of 0.301 E-score.

In turn, AATCGTTC had a binding signal of -0.0165 E-score.

In turn, AACTTCAG registered a binding signal of 0.116 E-score. Then ATTCTAAG, with 0.21 E-score; and AAACGTTT, with 0.123 E-score.

As for GATCTCAA, the binding signal is -0.162 E-score. Then GCTCATCC, with -0.252 E-score. The value for CCTCTTCA was -0.248 E-score; that for CTAGATGA was 0.0637 E-score; that for CACCGCCC was -0.262 E-score. Then CCCTCCGG, with -0.419 E-score. The sequence ATCCTGCA came in with a binding signal of -0.0452 E-score. CAGACGCC registered a binding signal of -0.308 E-score. In turn, GTCACCTA displayed a binding signal of -0.122 E-score.

With AGCGGTCA, the binding signal is -0.0745 E-score. The value for CTATATGA was 0.197 E-score. AGTAACTG: the binding signal was found to be 0.193 E-score. Then TCCAATAA, with -0.124 E-score. The value for ACTAGTTC was 0.329 E-score; that for AGGGATTC was -0.163 E-score; that for CAATCTAC was 0.365 E-score. Then ACGGGTCC, with -0.267 E-score. CCTTGCCC yielded a binding signal of -0.325 E-score.

Take AATCCGAT: the binding signal worked out at 0.0172 E-score. The value for TGCCTCCA was -0.144 E-score; that for ATTGACCG was 0.161 E-score.

Regarding ATTAGAAG, the binding signal was 0.186 E-score.

On to AAAAACGT, for which the binding signal was 0.0725 E-score. The value for AACGGGGG was -0.379 E-score; that for GTCCGCAA was -0.0703 E-score; that for AACGGTGA was 0.141 E-score. Sequence ATCCTGAG gave a binding signal of -0.0601 E-score. The value for CAATCCGC was -0.103 E-score.

As for CACCCCAC, the binding signal was -0.265 E-score.

GGTCAAGA had a binding signal of -0.141 E-score. The value for GGGTAACC was -0.186 E-score; that for GGCTGGTA was 0.217 E-score. CAAGGCGC: the binding signal was -0.272 E-score.

Consider TAAGTTCA, for which the binding signal amounted to 0.0904 E-score. Then GGTAGACC, with -0.0745 E-score; and GCTCAGAC, with -0.192 E-score. Regarding CCATAGAC, the binding signal was -0.134 E-score. As to CCGTGGCG, the binding signal is -0.194 E-score.

Take AATACATT: the binding signal turned out to be 0.252 E-score. Then TACTTTGA, with 0.0956 E-score; and AGTAAGGC, with -0.059 E-score. Then GGCATCGA, with 0.0234 E-score.

Take TCATCACA: the binding signal came to 0.0709 E-score. AGTTAGTA: the binding signal turned out to be 0.319 E-score. As for GTCTGCGA, the binding signal was -0.167 E-score. The value for GCCCACAA was -0.109 E-score. In turn, GACGATAC returned a binding signal of 0.0632 E-score.

For the sequence CTTAACGA, the binding signal is -0.152 E-score. Then ATGATTCG, with -0.144 E-score; and CACGTGTA, with 0.175 E-score; and CTAAGCCA, with 0.0287 E-score.

With AGCTTAAT, the binding signal worked out at 0.023 E-score. Then CTTATATA, with 0.253 E-score. Then AGCATTAT, with 0.255 E-score; and ACACGCCG, with -0.287 E-score; and TAGAGCCA, with -0.123 E-score. Then AAGAATAA, with 0.183 E-score; and ATGGACTA, with 0.0575 E-score; and CGTTTGAC, with -0.0575 E-score. AATACCTG gave a binding signal of 0.141 E-score. Then CGTTATCA, with 0.2 E-score; and GGTTTATA, with 0.0906 E-score.

As for GCCCGTCC, the binding signal is -0.248 E-score. The value for ACGATCAT was 0.0955 E-score; that for CGGACATA was 0.0669 E-score.

The sequence ACCCATCT had a binding signal of 0.119 E-score. The value for TCACGTGA was -0.0446 E-score; that for ATCGGTAC was 0.22 E-score.

Take GCGCTGCC: the binding signal was -0.359 E-score.

In turn, CCCCCGAC gave a binding signal of -0.445 E-score.

With CTTTACCA, the binding signal was 0.136 E-score.

ATAGGGGG: the binding signal is -0.22 E-score.

For the sequence GGGGTGAC, the binding signal was -0.307 E-score. As to ATAGCACC, the binding signal was -0.0446 E-score. The value for AACAACGT was 0.182 E-score; that for CTGATGGA was -0.079 E-score. Then CGCGTGAA, with -0.038 E-score. Then TAACAGGA, with 0.0364 E-score; and AACTACTC, with 0.381 E-score; and ATCGCCAT, with 0.0173 E-score. Take AATCTACA: the binding signal is 0.326 E-score.

ACTTATAT had a binding signal of 0.332 E-score. The value for CAGTGTCG was -0.122 E-score.
